In the supplement of paper PMC3334620:
In all, about 33,000 sequences were measured (“E-score (-0.5 to 0.5)”: median about -0.04, highest 2% from about 0.36 on). The list shows a part of the results.

These sequences were tested against T1, Hmlalpha2 (UniProt P0CY09) (assay: PBM E-score (8-mer binding enrichment) (E-score (-0.5 to 0.5)); higher = stronger / more preferred TF binding; most listed sequences are background and not binding sites). Conditions: protein concentration: 200 nM; construct: GST-full length.
T1 sequence: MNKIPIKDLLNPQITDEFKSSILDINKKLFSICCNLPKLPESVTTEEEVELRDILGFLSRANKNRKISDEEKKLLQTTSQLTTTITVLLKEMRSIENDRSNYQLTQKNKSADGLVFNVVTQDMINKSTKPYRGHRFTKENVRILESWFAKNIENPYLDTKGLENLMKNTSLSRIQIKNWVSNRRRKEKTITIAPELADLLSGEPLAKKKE
Outline: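 Universal all-10-mer Agilent arrays, fresh or stripped once, were converted to double-stranded form by primer extension. GST-tagged yeast transcription factors from PURExpress in vitro transcription/translation, full-length or DNA-binding domain only, were applied at about 100-200 nM and detected with fluorescent anti-GST. After masliner normalisation, the Universal PBM Analysis Suite scored each ungapped eight-base word together with its reverse complement by E-score.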
With CGTAATCA the “PBM E-score” value was 0.367. In the case of AGTGTCTA, the “PBM E-score” value is reported as 0.14. With CCGCCCCA the “PBM E-score” value was -0.0198. For ACTCCCCA, the “PBM E-score” value was 0.0124. For CTTACTCC, the “PBM E-score” value was -0.0246. In the case of GTGGCAAC, the “PBM E-score” value is reported as 0.0116. ATGGGTAA was tested, and the “PBM E-score” value was 0.117. With CCCTATGC the “PBM E-score” value was -0.258. In the case of AGAAAGCG, the “PBM E-score” value is reported as -0.00586. ACTTCGGA was tested, and the “PBM E-score” value was 0.0225. For AGGCGACT, the “PBM E-score” value was -0.26. In the case of CCTAAGGA, the “PBM E-score” value is reported as -0.22. For CTGGTCAA, the “PBM E-score” value was -0.0353. In the case of CTAGACCA, the “PBM E-score” value is reported as -0.262. In the case of CGGCCTGA, the “PBM E-score” value is reported as -0.338. In the case of AAGCGGCC, the “PBM E-score” value is reported as -0.194. For ATTTAGAA, the “PBM E-score” value was 0.0643. In the case of CCGTACCG, the “PBM E-score” value is reported as -0.262. With ATATTATA the “PBM E-score” value was 0.193. With ATACACCG the “PBM E-score” value was 0.145. For ACGGAAGA, the “PBM E-score” value was 0.114. For CCGGTCTA, the “PBM E-score” value was -0.22. With AGGAGCTC the “PBM E-score” value was -0.217. With AACCATTA the “PBM E-score” value was 0.229. CAGGTCTA was tested, and the “PBM E-score” value was -0.12. In the case of AGACCATC, the “PBM E-score” value is reported as -0.23. With GAGGATGA the “PBM E-score” value was -0.145. In the case of CACTCCTC, the “PBM E-score” value is reported as -0.217. In the case of CTACGACC, the “PBM E-score” value is reported as -0.116. AGCTCCGG was tested, and the “PBM E-score” value was -0.188. With GACAAAGA the “PBM E-score” value was 0.111. In the case of GGCACAAA, the “PBM E-score” value is reported as 0.0169. In the case of CAGTGTAA, the “PBM E-score” value is reported as 0.343. CACGAGCG was tested, and the “PBM E-score” value was -0.00918. GGACCCAC was tested, and the “PBM E-score” value was -0.244. For CTGATACC, the “PBM E-score” value was -0.15. For GACTCATA, the “PBM E-score” value was -0.141. For AGAAATCG, the “PBM E-score” value was -0.0591. With TCGCGTAA the “PBM E-score” value was 0.45. For CGGCGCTC, the “PBM E-score” value was -0.173. With CTTCTCCC the “PBM E-score” value was -0.241. In the case of AGTCTCGA, the “PBM E-score” value is reported as -0.0296. For GTCCAGCA, the “PBM E-score” value was -0.148. For CGGTGCTC, the “PBM E-score” value was -0.0964. In the case of ATAATACG, the “PBM E-score” value is reported as 0.239. With AACGGAAA the “PBM E-score” value was -0.0341. In the case of CACTCACG, the “PBM E-score” value is reported as 0.0729. With ACATACTG the “PBM E-score” value was 0.238. With CAGGCCCG the “PBM E-score” value was -0.285. In the case of CTTTTGAA, the “PBM E-score” value is reported as -0.0152. With CCTAATCG the “PBM E-score” value was -0.0771. With CTTGGAGA the “PBM E-score” value was -0.0945. In the case of CGCGAAAA, the “PBM E-score” value is reported as 0.0338. For AGTTAAGC, the “PBM E-score” value was 0.176. For ACTAACAC, the “PBM E-score” value was 0.293. With AAGTCTCA the “PBM E-score” value was -0.155. AAAGATAG was tested, and the “PBM E-score” value was -0.026. For CTAATGAA, the “PBM E-score” value was 0.0377. AACGCATC was tested, and the “PBM E-score” value was 0.0778. ACCAGTAC was tested, and the “PBM E-score” value was -0.0431. For CACGCACC, the “PBM E-score” value was 0.111. ACTAGGCT was tested, and the “PBM E-score” value was 0.0347. With CCTTCTAG the “PBM E-score” value was -0.215. For CTGTCTGC, the “PBM E-score” value was -0.191. AGGCTAGA was tested, and the “PBM E-score” value was -0.208. CTCAACCA was tested, and the “PBM E-score” value was 0.0306. For CGACCCCA, the “PBM E-score” value was -0.0768. With ACGGTTGG the “PBM E-score” value was -0.144. CTCATCAA was tested, and the “PBM E-score” value was -0.127. In the case of CGATAGCA, the “PBM E-score” value is reported as -0.0905. ATGATCTA was tested, and the “PBM E-score” value was 0.13. For ATTCGCTA, the “PBM E-score” value was 0.0939. In the case of AAACCGTA, the “PBM E-score” value is reported as 0.0514. For AATCATCC, the “PBM E-score” value was 0.0141. For AGGGCGCC, the “PBM E-score” value was -0.241. GATATAGA was tested, and the “PBM E-score” value was -0.0128. With CATACGGC the “PBM E-score” value was -0.079. With CAGGCTTA the “PBM E-score” value was -0.146. For TAAACCTA, the “PBM E-score” value was 0.118. For TCCGTAGA, the “PBM E-score” value was -0.144. With ACGGTAGG the “PBM E-score” value was -0.176. For AGGTCACT, the “PBM E-score” value was -0.133. With AGCGAACC the “PBM E-score” value was -0.00909. For CTGGGTAC, the “PBM E-score” value was -0.172. AGTGGAAC was tested, and the “PBM E-score” value was -0.0118. CCCAGCGG was tested, and the “PBM E-score” value was -0.199. In the case of ATTGGGCC, the “PBM E-score” value is reported as -0.15. With CGGCATTA the “PBM E-score” value was 0.118. For TCGTACGA, the “PBM E-score” value was 0.11. For GCCTTCCC, the “PBM E-score” value was -0.304. GCATGGCC was tested, and the “PBM E-score” value was -0.0405. In the case of ATATAATC, the “PBM E-score” value is reported as 0.149. AACCACGG was tested, and the “PBM E-score” value was -0.23. In the case of CTGGGGGA, the “PBM E-score” value is reported as -0.422. In the case of CAATGGGG, the “PBM E-score” value is reported as -0.166. In the case of CATAGTTC, the “PBM E-score” value is reported as 0.0145. For CGAACACC, the “PBM E-score” value was -0.105. With AGGAGGAC the “PBM E-score” value was -0.269. For CCGCTCTA, the “PBM E-score” value was 0.0597. For AACAAAAT, the “PBM E-score” value was 0.193. For CAGGCTCC, the “PBM E-score” value was -0.267. AATACGAG was tested, and the “PBM E-score” value was 0.229. For AATGAACG, the “PBM E-score” value was 0.139. With AACCTACC the “PBM E-score” value was -0.247. For AACCATCC, the “PBM E-score” value was -0.135. In the case of ACTATCGC, the “PBM E-score” value is reported as -0.079. In the case of TATAAAGA, the “PBM E-score” value is reported as 0.0402. For CCCGGCCC, the “PBM E-score” value was -0.261. For ACTAAGTC, the “PBM E-score” value was -0.157. CTTCTTAC was tested, and the “PBM E-score” value was 0.046. For GCCAATAA, the “PBM E-score” value was 0.0351. AAAGCTGT was tested, and the “PBM E-score” value was -0.0214. In the case of CAGCCCAC, the “PBM E-score” value is reported as -0.0566. For AGCTAGGG, the “PBM E-score” value was -0.204. In the case of ACTCTCGA, the “PBM E-score” value is reported as 0.093. For ACCCTATG, the “PBM E-score” value was -0.0103. With CGTATTAA the “PBM E-score” value was 0.268. ACAGTCCG was tested, and the “PBM E-score” value was -0.117. With GCGGGGCC the “PBM E-score” value was -0.242. GCTCGAAA was tested, and the “PBM E-score” value was -0.297. In the case of CAACCGAG, the “PBM E-score” value is reported as -0.249. With GCACGCCA the “PBM E-score” value was -0.337. For ATTGTTCG, the “PBM E-score” value was 0.242. GCGGCGCC was tested, and the “PBM E-score” value was -0.0408. For TCTCTAAA, the “PBM E-score” value was -0.118. CAGCGAAG was tested, and the “PBM E-score” value was -0.136. For GACCTCAA, the “PBM E-score” value was -0.067. In the case of CCCACCGC, the “PBM E-score” value is reported as -0.285. With ATCTCCTG the “PBM E-score” value was -0.0358. In the case of CTTTTCGA, the “PBM E-score” value is reported as 0.0253. For GTATCGAA, the “PBM E-score” value was 0.0617. In the case of CGAACAAA, the “PBM E-score” value is reported as 0.0922. In the case of TATTCGCA, the “PBM E-score” value is reported as 0.137. For ATAGAGGC, the “PBM E-score” value was -0.101. For CCATATGA, the “PBM E-score” value was -0.136. ATTCAGGA was tested, and the “PBM E-score” value was -0.119. For AGTATCGC, the “PBM E-score” value was 0.0494. In the case of CTTCACGA, the “PBM E-score” value is reported as -0.299. With GCATGGTA the “PBM E-score” value was 0.189. For AAAGAACT, the “PBM E-score” value was 0.116. For CCCTCACA, the “PBM E-score” value was -0.133. In the case of ACCATCTC, the “PBM E-score” value is reported as -0.178. TCTGCCCA was tested, and the “PBM E-score” value was -0.194. With AGTGCGAT the “PBM E-score” value was -0.0424. With GGTTCAGA the “PBM E-score” value was -0.235. For GGTTTTGA, the “PBM E-score” value was -0.0124. With CTTTTGGA the “PBM E-score” value was -0.174. With AGAGGACC the “PBM E-score” value was -0.2. With TCAATAAA the “PBM E-score” value was 0.0976. TCCAGAGA was tested, and the “PBM E-score” value was -0.278. With CCGATACC the “PBM E-score” value was -0.102. For CAACCCAG, the “PBM E-score” value was -0.073. CTGGACAA was tested, and the “PBM E-score” value was -0.0143. CGACAAAA was tested, and the “PBM E-score” value was 0.111. With ACCACCGA the “PBM E-score” value was -0.248. For CCTCCTGC, the “PBM E-score” value was -0.236. AACCTTGG was tested, and the “PBM E-score” value was -0.103. For CGCATTAA, the “PBM E-score” value was 0.201. TTGAGCAA was tested, and the “PBM E-score” value was 0.00244. In the case of GAGTACGC, the “PBM E-score” value is reported as 0.0739. GCAGAGAC was tested, and the “PBM E-score” value was -0.303. TACCGAGA was tested, and the “PBM E-score” value was -0.124. With CAGACCAC the “PBM E-score” value was -0.115. With AATTTGAC the “PBM E-score” value was 0.204. For GACTCAGA, the “PBM E-score” value was -0.358. For AAGCCCCG, the “PBM E-score” value was -0.127. For ATTATAAA, the “PBM E-score” value was 0.116. CCTAGCGA was tested, and the “PBM E-score” value was -0.132. ACTGCATC was tested, and the “PBM E-score” value was -0.0503. For CGGTTAAA, the “PBM E-score” value was -0.00837. With GAGGTTGA the “PBM E-score” value was -0.12. For GACGGTGC, the “PBM E-score” value was -0.145.
